# The list shows a part of the results. At the low end of the ranking, values are background and their order means little. Measured with an extract: partners may take part in the binding.
# Biological target: T1, HNF4alpha2 (COS-7 nuclear extract) (UniProt P41235)
# T1 sequence: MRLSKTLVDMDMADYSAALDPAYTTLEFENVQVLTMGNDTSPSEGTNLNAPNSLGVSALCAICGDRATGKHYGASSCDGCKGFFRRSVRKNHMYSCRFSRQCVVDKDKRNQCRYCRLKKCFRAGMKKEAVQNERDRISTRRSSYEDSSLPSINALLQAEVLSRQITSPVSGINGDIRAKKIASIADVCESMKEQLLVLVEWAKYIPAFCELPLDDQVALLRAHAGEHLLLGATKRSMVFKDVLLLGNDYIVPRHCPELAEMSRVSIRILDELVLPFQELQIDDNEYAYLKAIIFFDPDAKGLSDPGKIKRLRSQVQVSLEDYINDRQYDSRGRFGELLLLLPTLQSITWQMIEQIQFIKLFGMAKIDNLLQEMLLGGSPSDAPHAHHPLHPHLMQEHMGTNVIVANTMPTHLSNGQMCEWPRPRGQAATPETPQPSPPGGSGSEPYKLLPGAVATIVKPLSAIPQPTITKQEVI
# Test: protein-binding microarray
# Conditions: COS-7 nuclear extract on double-stranded Agilent 4x180k PBM; binding buffer, salt, pH and temperature not given; high values mean tight binding; double strand, one strand shown; sequences stand for … in …GCCTAGGGAGATTAGAGTATCGGTCGA
row,Sequence,binding signal (log2 normalized intensity)
1,CATATCACCTAGGTGGAATCTTATACACAC,-0.515
2,ATCTTCAGTCTAGAATCTGCAGCCCCTTTT,3.3
3,TGGACTACTTCATGTCCTGTAATTGGGGGA,1.09
4,GTTCGAATCCCAGCGGTGCCTCAACCGAGC,-1.07
5,ACTACCTCTTTAGGCTGGACTCTGACCCAT,6.75
6,GTAACCCCCCAGGAGCGAGTCAAGGGTCAA,4.07
7,TTCCTCCCTTGGAATGTGACCTTAGACCCC,8.18
8,AACACGGACTTTGAAGCTCCAAGATAGGAA,-1.05
9,ACCCAACCTGTTACAAAACAGGTTCTTCCA,-0.455
10,GTGAACTTTGCCCTCTCTTTCTGGAACCTA,5.08
11,CCAGAGTCTACAGGTCAGACCTGTTTCAAA,1.51
12,CTGCTGGGGGTAAAGTGGATTGCTGGCCTT,0.0976
13,CTCATCCCAGGGATAATGATAAAGAGATTG,-1.13
14,TGTTTAAATAGTGATAATGGATGGCAAATA,1.05
15,TATCAACCAATGTATTCATGAGCATGCTTC,0.711
16,GTGCTCCTCCCCATCTCAGCCTCTCAGGTC,2.01
17,AGGACCTTGGACTGAAGACTGGAACTGGGC,0.604
18,GTAAATGCTGGAGATGAGGCTCAGACCTGA,-1.08
19,GCCCTGGAATGGGATCCAGGTGCAAAGTAC,4.18
20,TTTTGGGTAAAGTCCAGGCAGGACATCAAA,1.44
21,AGATGAGGAAATTGAGGCTTAGCAGCTTGA,-1.05
22,TCCTCAAAGAGCAGATGTGTCTTTATAACA,1.4
23,CAAGATTCTTGGAGGCTGCAGCGCCACATT,-1.1
24,ATGCCAGGCAAGAGCTCAGAAGCCACCAGT,-1.06
25,ACAGATTCAGAGTCACATTTTAAGAAACCT,-0.998

row,Sequence,binding signal (log2 normalized intensity)
1,TCCCCTGGGCCCACGGCTCTGCACAGCCTG,-0.989
2,GTCAAAGGTCAATGAAGCTCTTGCTGGTCA,2.5
3,GTTGCTGTGCTGCCCTCTTGTGGCCATTTG,1
4,CCTGCCCTTTGTCCCTCCTGCTAGTCACAT,2.32
5,CAGGGCAAGGACTCTAAAGGGAATAACCTT,-0.302
6,CAGGCCTCCCTCCCTCCCCCATTAGAGGCA,4.48
7,GCTGGGGGACGCGACCTCCGGGAAAGCTAT,-1.12
8,CCAAGTTCAAAGGTTATCTGCTGGCAGAAT,3.99
9,AACCCAAAGTCTTTCTCTTTCAAGATAACA,1.03
10,AAGTCCACAAAGATAAGAAAGAATCAGCAC,-0.904
11,GCCTCGCCCGAGCTGTGCGGTAGGCATTGA,-1.28
12,GGATTTTAGCAGATAACTCCTGTGCTGGAA,-0.785
13,TGGAGATCAGAGTCCAGCTGTGCCCCAGTC,2.89
14,CTCTCTCCAAGGCACAGAGAAGAATTTCGA,-1.18
15,CCAGCTCTGTTGCTTATCTTCTCTTTTACT,1.68
16,ACAATTTACAGTGTTCAAAGGTAGCTTCCT,1.53
17,CTGACCCTCAGGTTGCCCTAGTGACTCTAG,1.33
18,CCTGGGGAGCGGCCTGCACCTGTTTCTGGA,-0.834
19,CCTCGGCTCTGCGCAGGCGCAGTCCTCTCT,-1.03
20,TCGCCCGAGCGCTGCTTCTCGTCCCCGCCC,4.07
21,AAGTTACCTACGGGTCAAGGGTTCAGGGCT,1.59
22,AATGCTCTGGCCTTTTTTTTGTGTGTGTGT,3.22
23,AGCATGGCCCAGGGACTCAGGCACACAAAA,-1.21
24,TGTAGCCAGATAAGAGCTATCAATGACCCA,1.96
25,ACTTATTGTGTTATGTACTTAGTGTTTTAT,2.54

row,Sequence,binding signal (log2 normalized intensity)
1,AAGCAAGGCTCTTAGCAGAAGCCCTCCTGG,-1.17
2,TTGGTGCCTGCAGAGCCTCCCCATTGTAGA,2.46
3,CTTCCCCTCCTTAGGAAAGAGACATCTGGG,0.134
4,TGTCCGGACACCAACCTTTGATCATCCGCA,3.73
5,ACTATTTGGTGCACAAGAGGGCAGTATTTG,1.17
6,GTGTTTTCCGGGGGCGGTTTTTCCATTGTA,1.53
7,CACATTTCTGAGCTGTGGAAACTCCACATG,-1.13
8,TTCCTGCTGACCCTCTCCCCACCATTAACC,4.49
9,TTCCCACCAAACCTGAAAAACCTCTCTCCA,-1.11
10,TTGAGCTGGATGACCTTTGTCCTGGCACAA,7.13
11,GGCTTAAGATAAGGGACATCAACAAAGAAG,-1
12,TTGACCCTTAGGATGTGGGGTATCAGGTGG,2.79
13,AAAGGTCACCAGTGAGCCAAGGTACCCTGG,0.407
14,CAACCTTTGAACTGGGTCTTAATAAGATAA,2.77
15,CGATCCTGCCCTTCTGACCTCCCAGGGATA,3.32
16,GTGTGAATCGACCTTTAGCACCGTAAGAGA,5.25
17,GGAATTTGGGTGATCCTGGTAGCAGGGGTG,1.37
18,AGAATAGAGGCCTTTGTGCTGACTAAGAGG,-1.12
19,TCAGGTGTGAACCCAGGCAAAGTCCAGAAA,2.96
20,TCACCATCCCTGTTGCCTCATCTGAAAAAA,1.11
21,ACCCTGACCTGTCAAGCAATGATCTTCATG,0.32
22,ACGAGGTGAGAGGCGGAACAAGGCTGAAGG,-1.14
23,CGTTTGCTCCCATCCCCCCAAAGGCTCTCT,4.38
24,GGGAAGGGAGCAGTGGGGACGCCTTCCCCT,-1.2
25,GCATCAGGGTCCACAAGGGTTTAAATCTGA,1.03

row,Sequence,binding signal (log2 normalized intensity)
1,TTTCAGCGTCAATATTTGCTGTCTCTTCCA,-0.674
2,TAACCATATGTCTTAAGCTAACATGTACAG,0.0353
3,GGCCAATCCGGCTGGCAGCCGATTGACCTG,2.88
4,CCAGTGAGACCCATTTTGGACTTTGACCTC,11.9
5,GTTTTTCTTCCGGTCACATACTCTGGAAAT,1.37
6,TCAATAGAGCATGAGAACTTCTTCCAATGA,-1.04
7,TTGTGAATAAGGATTATCACTGAATCGAGG,-0.667
8,ACCCTCAGCTCCTCTCCTCCATGGCCTGGG,-1.2
9,TCTCACTCCAAAGGCTGTTTGCACCGTGTG,1.04
10,AGTGACTTAGCAGGATTCTTGCTACAACTG,-1.12
11,AGGAGAGAGGCCTCTAGATAAACCAAGCCT,-1.24
12,AACTACAGGGTCTGTGGTAGATTATCTACA,-0.989
13,AGTGTTGCTCAAGTCTCCTGTTTTCTTATT,1.09
14,CAGGCTCCACCGGATGGATAGGAATTGAGT,-1.15
15,AGTAAAGGACAAAGTCAACGGCTCTGCATA,-0.951
16,ATGGTCTGCTTGATAGCCATCTGGTGGACT,2.24
17,GGCCAGTTCAGCGCGTCTTAGCACTCACCC,-1.03
18,AGGTGACAGTTAGGTAAGAGACAAAGGTTG,1.69
19,TAAGCACAGGTTTCTGTCCTGGTCACAGTA,0.7
20,AGACAACTTAGAATTTCATTTTGCTCTTTG,0.723
21,AAATTTGTGTGTAACATTTGACTTCCCCAA,2.47
22,GCTACGCACCAGGCATACTCCTCCTGGCTT,-1.22
23,CTTTTCAGTGCAAGGGACCTAGGTGAGCAG,1.24
24,GGGCAGCCCGTGTGGGCGGGTGCAGCTTCC,-0.675
25,GAGATAAGGCAAGTCCCTTCCACCTATGAA,-1.22

row,Sequence,binding signal (log2 normalized intensity)
1,CTGGCAAAACTGGTCAATATCCACACAAAC,-1.07
2,CACACTGCAGCGGCATTCTCTGGTCTGCGG,-1.06
3,CTGGTACCATGGATGCACTCCATTTACAGA,-0.798
4,CCACATTCTTTTAGTGTGCTCTGGGTCTGT,2.63
5,GGTGGGCTCCACCCAGTTCGTGCTTCTTGG,-1.08
6,TTGCTTCTGCCCCCTGGAGGAGCAAATACT,2.48
7,GGATTTTTGCTGAAGACAGGCCAGGGTGAT,0.831
8,TTTAATACCTCTGATCACTACAAGCTTTGA,-1.1
9,AGCAGGATAGAAGGAAACAGTTCAGATCTG,-0.971
10,ATCACAATCCTTAAGCAGCAGATAAGGCTA,-1.21
11,TGAAGTGAAGTTACAAAGGTCACACACCTG,4.3
12,AAACACCCCTCCCCCACACAGACAAAGACA,4.77
13,GCCAGTGGGGGTTGGTCTCTAAAACCCCCA,-0.751
14,AACAAAGATTGCTTGCCAGTTCCCTCACTG,-1.13
15,CTTGACGCTAACTTCCAGATCAAAGGACAT,0.608
16,GGAGAATGGCAAGAGATAAGGGTGGCCATC,-0.981
17,TCCTTCAGCGTGAACTTTGACATGAGAGAA,3.66
18,TGGGCTAAAAAGGAAGCTGTGTGTGTGAGT,2.18
19,ATTGCCTGGCATTATCAGTGCTGCCATTTG,-1.02
20,AGGTTCCTCGCCTATGGTATGTATGGAATG,2.04
21,ACATTTGGTGTAAGCACTTGTGGTATGTTT,1.98
22,AAGAGGTTAAAGACCTTTGGGTAGGAATAG,1.24
23,CACATGCTATTATTTTCCATCAGTGGACTT,3.5
24,TCTTAGGAAAGAACAGGTCAAAGGTCAGTT,9.13
25,TTTGGAAAAGATTAAGTTATCCATGGAGTG,1.47

row,Sequence,binding signal (log2 normalized intensity)
1,ACGTGAGGGCAGCATAATCACATACAGGCC,-0.924
2,GAACCTGTGCTTCTGGTTCTGGACTAAGAA,1.05
3,TTCAAAGGGAAAAAATAATCAGCTTAAGCA,-1.11
4,CAAACATTACTGGCACACAGCAGATTACAT,-1.01
5,CTAAAATATTCACTATCTGATCCTTTACAG,-0.264
6,ATGCCCCAAATGACGCTTTAAGTAGGCACT,0.412
7,AAAATAGTGACCCTGTCTCTCAGTCTCTGT,1.2
8,AATCCCCGAATGTCCAGACTGTGCATACCA,1.6
9,TGGCCCTGATTTCAAAGTTCAGTTTGATTA,2.36
10,AGGATCGCTTGAGCCTGGGAGGCAAAGGTT,2.95
11,GGAGGACAGACTCTGGGAGATAAAGCAGAG,-1.16
12,CTCACGCGCTCCCTGTTTAGAATTCTGCCT,-1.16
13,GAATCTACAGAATTCTCATGGAGGACTTTG,2.77
14,ATAGAGAGTTGGGAGGGAACAGTCCAGAGT,0.00927
15,AGAGAGCCGGAAACTCCACCTTCAGATCAT,-1.14
16,GACCTTGTCATACTGGTTGAATGGACGGAC,2.24
17,GCTTGGAGCCCCTTTGGAGGGGAAGCTGGG,-1.13
18,CTAATGCCTGGGAAAATGTTGATTACGTGT,1.89
19,TTCAACTATTCCTCGACCTTCGGCTGGGGA,1.01
20,CCACCTTCCCGGCCTGGCCACTCCGTTTGC,-0.958

# From paper PMC10726135
